Test results taken from the supplement of paper PMC4604168 (melanoma cell lines).
The other results are listed elsewhere or left out. Many values rest on one well or one pass, so single values are uncertain.

What was measured:
Assay in all cases: cell count relative to DMSO control; melanoma cells; higher = more viable cells
Details in all cases: library dose: standard library concentration; 72 h
G361 = test system: G361
IPC-298 = test system: IPC-298
IST-MEL1 = test system: IST-MEL1
LB2518-MEL = test system: LB2518-MEL
LOXIMVI = test system: LOXIMVI
MEL-HO = test system: MEL-HO
MZ2-MEL = test system: MZ2-MEL
MeWo = test system: MeWo
RPMI7951 = test system: RPMI7951
RVH-421 = test system: RVH-421
SkMel28 = test system: SkMel28
SkMel2 = test system: SkMel2
SkMel30 = test system: SkMel30
SkMel5 = test system: SkMel5
UACC257 = test system: UACC257
UACC62 = test system: UACC62
WM115 = test system: WM115
WM1716 = test system: WM1716
WM1745 = test system: WM1745
WM3526 = test system: WM3526
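Further: cells treated in 1,536-well plates, then fixed and DAPI-stained, with nuclei counted from automated high-throughput microscope images.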

Row | SMILES | cell count (G361) [%] | cell count (IPC-298) [%] | cell count (IST-MEL1) [%] | cell count (LB2518-MEL) [%] | cell count (LOXIMVI) [%] | cell count (MEL-HO) [%] | cell count (MZ2-MEL) [%] | cell count (MeWo) [%] | cell count (RPMI7951) [%] | cell count (RVH-421) [%] | cell count (SkMel28) [%] | cell count (SkMel2) [%] | cell count (SkMel30) [%] | cell count (SkMel5) [%] | cell count (UACC257) [%] | cell count (UACC62) [%] | cell count (WM115) [%] | cell count (WM1716) [%] | cell count (WM1745) [%] | cell count (WM3526) [%]
1 | CO[C@@H]1[C@H](N(C)C(=O)c2ccccc2)C[C@H]2O[C@]1(C)n1c3ccccc3c3c4c(c5c6ccccc6n2c5c31)C(=O)NC4 [Midostaurin] + Cc1cc(SCc2sc(-c3ccc(C(F)(F)F)c(F)c3)nc2C)ccc1OCC(=O)O [GW0742] (first compound 0.4 µM, partner dose 10 µM) | 39.7 | 43.3 | 69.5 | 55.9 | 49.8 | 64.5 | 39.2 | 48.5 | 42.5 | 42.5 | 30 | 34.2 | 46.6 | 42.8 | 50.1 | 54.4 | 35.7 | 25.9 | 27.5 | 56.5
2 | CN(NC(=O)CC(=O)NN(C)C(=S)c1ccccc1)C(=S)c1ccccc1 + O=C(Oc1ccc([N+](=O)[O-])cc1)N1CCC(C(O)(c2ccc3c(c2)OCO3)c2ccc3c(c2)OCO3)CC1 [JZL184] (first compound 0.03 µM, partner dose 5 µM) | 61.9 | 74.6 | 36.4 | 2.69 | 61.3 | 80.1 | 95.7 | 11.2 | 47.1 | 45.4 | 6.52 | 66.3 | 79.5 | 69.2 | 97.5 | 68.8 | 30.6 | 99.8 | 18.9 | 89.8
3 | Cn1cnc2c(F)c(Nc3ccc(Br)cc3Cl)c(C(=O)NOCCO)cc21 [selumetinib] + Cn1cc(C2=C(c3cn(C4CCN(Cc5ccccn5)CC4)c4ccccc34)C(=O)NC2=O)c2ccccc21 [Enzastaurin] (first compound 0.075 µM, partner dose 4 µM) | 69.6 | 58.7 | 69.5 | 65.6 | 104 | 90.4 | 83.6 | 73.3 | 59.3 | 125 | 59.8 | 69.2 | 75.1 | 88.2 | 115 | 51.8 | 76.1 | 67.1 | 81.3 | 68.3
4 | O=c1[nH]nc(Sc2ncc([N+](=O)[O-])s2)n1-c1ccc2c(c1)OCCO2 + C[As](C)SC[C@H](NC(=O)CC[C@H](N)C(=O)O)C(=O)NCC(=O)O [Darinaparsin] (first compound 1 µM, partner dose 2 µM) | 81.6 | 88.9 | 88.2 | 88.5 | 69.1 | 78.1 | 82.5 | 62.9 | 115 | 92.2 | 73.1 | 88 | 85.1 | 61.3 | 77.9 | 52.4 | 57.7 | 58.2 | 79.9 | 66
5 | NC(=O)c1ccc(N(C(N)=O)c2c(F)cccc2F)nc1-c1ccc(F)cc1F + C[As](C)SC[C@H](NC(=O)CC[C@H](N)C(=O)O)C(=O)NCC(=O)O [Darinaparsin] (first compound 2 µM, partner dose 2 µM) | 80.7 | 92.2 | 104 | 79.6 | 110 | 96.8 | 98.4 | 67.1 | 145 | 142 | 80.2 | 104 | 76 | 59.6 | 102 | 92.8 | 87.1 | 83.9 | 112 | 74.7
6 | CS(=O)(=O)CCNCc1ccc(-c2ccc3ncnc(Nc4ccc(OCc5cccc(F)c5)c(Cl)c4)c3c2)o1 [lapatinib] + C[As](C)SC[C@H](NC(=O)CC[C@H](N)C(=O)O)C(=O)NCC(=O)O [Darinaparsin] (first compound 4 µM, partner dose 2 µM) | 56.6 | 95.8 | 97.1 | 87.9 | 83.4 | 74.3 | 49.4 | 57 | 42.7 | 75.3 | 55.7 | 80.5 | 76.3 | 43.7 | 75.4 | 41.7 | 71.5 | 53.1 | 82.6 | 57.3
7 | CN(c1ncccc1CNc1nc(Nc2ccc3c(c2)CC(=O)N3)ncc1C(F)(F)F)S(C)(=O)=O + N.N.[Cl][Pt][Cl] [cisplatin] (first compound 0.4 µM, partner dose 8 µM) | 84.8 | 112 | 109 | 87.9 | 60.2 | 97 | 101 | 96.3 | 58.7 | 102 | 85.3 | 101 | 82.5 | 69.7 | 72.8 | 77 | 86.3 | 100 | 63.5 | 97.4
8 | CS(=O)(=O)c1ccc(C(=O)Nc2ccc(Cl)c(-c3ccccn3)c2)c(Cl)c1 [vismodegib] + C[As](C)SC[C@H](NC(=O)CC[C@H](N)C(=O)O)C(=O)NCC(=O)O [Darinaparsin] (first compound 5 µM, partner dose 2 µM) | 81.3 | 86.4 | 87 | 99.7 | 117 | 103 | 102 | 89.3 | 107 | 166 | 83.5 | 90.2 | 108 | 82.3 | 95.3 | 76.7 | 90.8 | 88.8 | 124 | 79.7
